The labels stand for the following.
T1: UNK ZnF1-3 (human, UniProt Q9C0B0 31-174)
T1 sequence: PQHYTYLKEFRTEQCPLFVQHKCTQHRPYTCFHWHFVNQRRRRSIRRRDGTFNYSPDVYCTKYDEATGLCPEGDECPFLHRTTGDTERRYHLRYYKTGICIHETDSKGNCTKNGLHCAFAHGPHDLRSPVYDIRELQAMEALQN

B1: chr16:46990815:46990816:-_ENSG00000069345_ENST00000563158|hu_hu|motif|central (ssRNA)
RNA: GGGAGUUCUACAGUCCGACGAUCUCAAAAUGAAGAUGUAAAGCUUUGUGGUUAGUUUAAAUUAUACACUCUGUAGAUACGGUACCAAUUUUAAAAGUUAUACAUAGACCAACAGAUGUCCCUCAGUUCAUCUGGAUUGAUAAGCAACAGAGGAUUGAGCAUCA
B2: 21120498_21121148_3012_CDS_ENSG00000141458_ENST00000269228|human|control|control (ssRNA)
RNA: GGGAGUUCUACAGUCCGACGAUCUAUCACAAUUGGUCUCAUCCAGUCCUUUAGCAGAAGUGGAGAAUAGGAGUUUUUGAAGAAGCGAAACAAACAGCUCUCUGAGGCCUGGACGCUUGUUCCAUCUUCAGCACCUCUGACACACAACAGAGGAUUGAGCAUCA
B3: chr7:2411435:2411436:+_ENSG00000106263_ENST00000360876|hu_hu|FALSE|FALSE (ssRNA)
RNA: GGGAGUUCUACAGUCCGACGAUCGAUGGUUUCUUUCAUCUCGACCACAUCCACAGGUACCUGUUUCUCCCUCAUUCGGAAAAUUUCAAAAUUUGUGACAACACCCUGGGUGCCUUUCGGAGUCCUAUCUACUUUCACACACAACAACAGAGGAUUGAGCAUCA
B4: chr1:220276048:220276049:+_ENSG00000067704_ENST00000302637|hu_hu|hu_hu_hu_mus_True|18_28 (ssRNA)
RNA: GGGAGUUCUACAGUCCGACGAUCGCAAAUUGCCUGGUUGGCGGGAAUUGUCCAAGGCUGGGUGGUCCAAACUAAAACGCUAACAGGGGAUGAGGCAUCUGUAAGAGAUGCCAAUUUUGGAGAAGGCCUCAGGAGGGGGAAUCUCAACAGAGGAUUGAGCAUCA
B5: chr2:61705769:61705770:-_ENSG00000082898_ENST00000401558|hu_mus|FALSE|FALSE (ssRNA)
RNA: GGGAGUUCUACAGUCCGACGAUCUGGGCAUGAAGUAAAAGUUAUCUUAAAAAUGCCGUAAUUUUCAACUUCAUGCAAACUGAAUAAAGAUGACCAAAACAAAAGCUUAAACAAUGAAAGAAUAUUUCACAGAAAAUUUCUUAUCAACAGAGGAUUGAGCAUCA
B6: chr1:120316390:120316391:+_ENSMUSG00000064302_ENSMUST00000049404|mus_hu|FALSE|FALSE (ssRNA)
RNA: GGGAGUUCUACAGUCCGACGAUCUAACAUGGUCUGGUCAUGCUCAAGGUCAGCAGACUUCUGUUUGUCUGAGAAAUAGUCUAUCAGUUCUUGGCCAACCUGCAAUCGUUUCCCCACAUCCUUCUGCAACACCUGCGCCAGGCACAACAGAGGAUUGAGCAUCA
B7: chr14:62194323:62194324:+_ENSG00000100644_ENST00000337138|hu_mus|FALSE|FALSE (ssRNA)
RNA: GGGAGUUCUACAGUCCGACGAUCUCUUUCAUCACAGUAAGAAAAUUUCAUAUCGAGGCUGUGUCGACUGAGAAAUGUCUUGCUAUCUAAAGGAAUUUCAAUAUUUGACGGAUGAGGAAUGGGUUCACAAAUCAGCACCAAGCACAACAGAGGAUUGAGCAUCA
B8: 42054442_42057085_7686_CDS_ENSG00000174197_ENST00000570161|human|control|control (ssRNA)
RNA: GGGAGUUCUACAGUCCGACGAUCUUCUGUGGCCUGGUCUUUUUUUCUGGAAAGAAUCAAAGGUUUCCCCCUCCUGUUAUUUAUAAACAUCUGUCCAAGAUCUACAGAUGAUGCAGAAGAUCCUUCCUGCUGUUUGCUAAUUCUCAACAGAGGAUUGAGCAUCA
B9: chr22:19452774:19452775:-_ENSG00000070010_ENST00000399523|hu_hu|hu_hu_hu_mus_False|18_98 (ssRNA)
RNA: GGGAGUUCUACAGUCCGACGAUCCUUCUCAUUGUAGUUGAUGGCAAUCACAUCUCCAGUCGUCAGACAGGCGAAGUUUCUCAAUGCAUUUUCUAAUACCGCUUUAGGGUUGGUAAUGUCCAGGAAGUCUGGGCUCUGAGGCUGCAACAGAGGAUUGAGCAUCA
B10: chr3:10015032:10015033:+_ENSMUSG00000027533_ENSMUST00000029046|mus_mus|mus_mus_mus_hu_True|28_78 (ssRNA)
RNA: GGGAGUUCUACAGUCCGACGAUCGUUUUUACCAUCACAAGUGAUGAUACAAUCUGGCUUGGCCAUGGCGCCCAUUUUUCGCAAAGCUAUUCCCACUCCUAGCUCCUUCAUGUACUCAUCAAAGCCUUUGCUGUCCACCAGGCGCAACAGAGGAUUGAGCAUCA
B11: chr3:176740097:176740098:-_ENSG00000177565_ENST00000430069|hu_mus|hu_hu_hu_mus_True|8_78 (ssRNA)
RNA: GGGAGUUCUACAGUCCGACGAUCUGUUUUGUAUACCACAAAAGGAGGCACUUUCAGUAUCUGUAAAAGGUGUUUAGUCCUAAAACAUACUCACCUAGAGGAUAACUCAGGAAAACAAUCUGUUACACUAGUAUCUAUACUCCACAACAGAGGAUUGAGCAUCA
B12: chr2:47387770:47387771:-_ENSG00000143933_ENST00000272298|hu_mus|hu_hu_hu_mus_True|38_108 (ssRNA)
RNA: GGGAGUUCUACAGUCCGACGAUCAAGGUUUUAGGACAAUGACAGUAAGAUAAGGGAAGAAAACAUGGAGGAAUGAAGUCCUAAUUACUAUACAUGCAUAUUUUUUUACAGUAGGGGGGGGGAACCUUUUACAGAUAAGUUACACAACAGAGGAUUGAGCAUCA
B13: chr6:114274515:114274516:-_ENSG00000196591_ENST00000368632|hu_hu|motif|central (ssRNA)
RNA: GGGAGUUCUACAGUCCGACGAUCCAUUACACGAUCUGUUGUAUAAAAAGCUUCUUCAACACCAUCACCAUGAUGAAUAUCGGUAUCAAUAUAUAAGACUCUCUGAUGAUACUUUAGUAAUUCAAGGAUGGCAAGCACAAUAUCCAACAGAGGAUUGAGCAUCA
B14: 154715437_154725196_162_3pUTR_ENSMUSG00000042772_ENSMUST00000043560|mouse|control|control (ssRNA)
RNA: GGGAGUUCUACAGUCCGACGAUCCUGGUACAAGUCCUGCAGAGCUUGCCUGGAUGUCCAGACCUCAGCCGGACCCAGCUUAGAAUCUGUCAUUUCAGCCUUCAGGACUUCUGCCUGCCUAAUAUUACUUGAUUUCAGAUGCUCCAACAGAGGAUUGAGCAUCA
B15: chr2:99204607:99204608:+_ENSG00000040933_ENST00000545415|hu_hu|FALSE|FALSE (ssRNA)
RNA: GGGAGUUCUACAGUCCGACGAUCGGUAGUGUAGAUAGGAUAAUUCACUAGAACCCGUUAUUCUCACUGCAUGAGAUAGUGCUAGCUUCUUUCCCCAAAUAACAUUUAUUGGUAUGCCUAGGAUCCAAUUAUUUAAUUUAUUAUCAACAGAGGAUUGAGCAUCA
B16: chr16:75661828:75661829:-_ENSG00000065427_ENST00000302445|hu_hu|motif|central (ssRNA)
RNA: GGGAGUUCUACAGUCCGACGAUCUAUUAUUUUCUAGACAGAAGUGCCAACUGUUGUGCUUUCCAGUGUAUCAGUGGUUGCGGCAUUCUCCUUCUUGUCUUCGGGUUUCAUGGCAGGAAACAGAAGUACUUCCUUGAUGUUGUUCAACAGAGGAUUGAGCAUCA
B17: chr6:170852807:170852808:-_ENSG00000008018_ENST00000262193|hu_hu|FALSE|FALSE (ssRNA)
RNA: GGGAGUUCUACAGUCCGACGAUCGAUUGUAGACAGCAUUGCAGCAAUUGCCCCCGUAGUCAUGGCCUUAUUAUUGGAAUGCUUAUACAUCUUUAGUCUUGCUUCAAUAAUCUUUGUCAGCGUAAGACAGUCUCCAUGAAAACCCAACAGAGGAUUGAGCAUCA
B18: chr7:148615726:148615727:-_ENSMUSG00000019082_ENSMUST00000106007|mus_hu|FALSE|FALSE (ssRNA)
RNA: GGGAGUUCUACAGUCCGACGAUCUCUGACAUGACAAGACACAAAAAGUUACAACUUCUUAAAACUCUUCAAAAGAAAAAAAUAUAAUUCUGUAAGCAGCAGCAGCAGCUUCCAAGGUUCUGAUGUGACGGGAGGGGCAGCUCCCAACAGAGGAUUGAGCAUCA
B19: 56573591_56581124_1976_CDS_ENSG00000108389_ENST00000323456|human|control|control (ssRNA)
RNA: GGGAGUUCUACAGUCCGACGAUCACAGUGGUUAUUCAGGUUAGGGUCACUGGAUGUACGAGUCAGGGGGCUGCUUGUGUCACAGGCAGAAAGAAGAUCAUCCAUGGAUCUGGUUUUAGGUAAUCUGUCCAGAGAGCGGCCAGACAACAGAGGAUUGAGCAUCA
B20: chr6:170626544:170626545:+_ENSG00000112584_ENST00000537664|hu_hu|FALSE|FALSE (ssRNA)
RNA: GGGAGUUCUACAGUCCGACGAUCAGGGGUACAUCCAGGAUACUUGCUUCGGUGGUGCUCUGCCAGUUCUUUGAAAUUUACUACUGUACAUAUAUGUGGGCAGGUACUUCCCACAAAUCCUUGCAAACCUCUCACACCCAUAACCAACAGAGGAUUGAGCAUCA
B21: chr16:8992458:8992459:-_ENSG00000187555_ENST00000381886|hu_hu|FALSE|FALSE (ssRNA)
RNA: GGGAGUUCUACAGUCCGACGAUCUUGUCUAGGCUUGAAGAACUGUAGAAGAUCUCUUAAAGUACCUUCAUAAUUAUGUCUAAGAGGAUUACCUGGGCCAUCCCUAUAACCUUGAGACUUGAAAAACUGCAGCAACAUUGGAUCCAACAGAGGAUUGAGCAUCA
B22: 18875378_18877974_3791_CDS_ENSG00000157106_ENST00000446231|human|control|control (ssRNA)
RNA: GGGAGUUCUACAGUCCGACGAUCCACCGAUUUGUCAAAGCUGGAGAUGCAGCAAUCAACACCUGUCAUGGCACACAGGUGUUCCUGGUACUCCACAGAGGCCUUUUCAAACCUCCCUUCAGCCUGUUGAGCCACUGAGUUAAUCAACAGAGGAUUGAGCAUCA

The other results are listed elsewhere or left out.

For this assay, the target named is T1, UNK ZnF1-3. The experiment in a line: nsRBNS (natural sequence RNA bind-n-seq); RBNS binding buffer (assumed for nsRBNS): 25 mM Tris pH 7.5, 150 mM KCl, 3 mM MgCl2, 0.01% Triton X-100, 500 ug/ml BSA, 20 U/ml SUPERase-In, 4 C; UNK is unkempt and MSI1 is Musashi-1; names of the RNAs are library labels; protein concentration not given here; high values mean tight binding.
In the case of B1, the binding signal came out at 0.61 enrichment R.
The value for B2 was 0.871 enrichment R.
To B3 belongs 0.931 enrichment R; to B4, 2.86 enrichment R; to B5, 0.874 enrichment R.
As for B6, the binding signal was determined as 0.88 enrichment R.
The value for B7 was 1.13 enrichment R; that for B8 was 0.978 enrichment R; that for B9 was 0.745 enrichment R.
B10 displayed a binding signal of 0.745 enrichment R.
Regarding B11, the binding signal came out at 0.724 enrichment R.
B12 gave a binding signal of 2.02 enrichment R.
The value for B13 was 1.23 enrichment R.
B14 returned a binding signal of 0.456 enrichment R.
The value for B15 was 0.586 enrichment R; that for B16 was 0.512 enrichment R.
To B17 belongs 1.17 enrichment R; to B18, 1.42 enrichment R.
To B19 belongs 1.25 enrichment R.
Consider B20, for which the binding signal turned out to be 1.12 enrichment R.
The value for B21 was 1.88 enrichment R; that for B22 was 0.975 enrichment R.

For the origin of these results see PMC12136788.
